# Results from patent publication US20230338565A1 (SICHUAN KELUN BIOTECH BIOPHARMACEUTICAL, published 2023).
# Key:
# human Claudin18.2 [1] = molecular target: T1, human Claudin18.2 (human, UniProt P56856-2 1-261); test: cell ELISA on formaldehyde-fixed L929-Claudin 18.2 cells, HRP anti-human IgG
# T1 construct: whole, on cells; Overexpressed on HEK293T, L929, KATOIII, NCI-N87 and BaF/3 cells, and endogenous on NUGC-4 cells; In the cell ELISA the L929-Claudin 18.2 cells were fixed with 4% formaldehyde; also called CLDN18.2
# human Claudin18.2 [2] = molecular target: T1, human Claudin18.2; test: cell-based or functional assay
Binder,EC50 (human Claudin18.2 [1]) [µg/mL],EC50 of killing NUGC-4 cells (CCK8) (human Claudin18.2 [2]) [µg/mL]
"2C6.9-TL001 (DAR: 7.12) (other, TL001 linker-toxin on antibody sulfhydryl groups (thioether bond), 0 to 1 per light chain; overall DAR 7.12; TL001 linker-toxin on antibody sulfhydryl groups (thioether bond), 0 to 4 per heavy chain; overall DAR 7.12, also called 2C6.9-ADC) heavy: QVQLQESGPGLVKPSETLSLTCTVSGFSLTRYGVSWIRQPPGKGLEWIGVIWGEGNTNYNPSLKSRVTISKDSSKSQVSLKLSSVTAADTAVYYCARVNFGNALDYWGQGTLVTVSS[human IgG1 constant region not spelt out] light: DIVMTQSPDSLAVSLGERATINCKSSQSLLNSGNQKNYLTWYQQKPGQPPKLLIYWASTRDSGVPDRFSGSGSGTDFTLTISSLQAEDVAVYYCQNDFIFPLTFGGGTKVEIKRTVAAPSVFIFPPSDEQLKSGTASVVCLLNNFYPREAKVQWKVDNALQSGNSQESVTEQDSKDSTYSLSSTLTLSKADYEKHKVYACEVTHQGLSSPVTKSFNRGEC",0.0399,2.38
"2C6.9-TL001 (DAR: 3.79) (other, TL001 linker-toxin on antibody sulfhydryl groups (thioether bond), 0 to 1 per light chain; overall DAR 3.79; TL001 linker-toxin on antibody sulfhydryl groups (thioether bond), 0 to 4 per heavy chain; overall DAR 3.79) heavy: QVQLQESGPGLVKPSETLSLTCTVSGFSLTRYGVSWIRQPPGKGLEWIGVIWGEGNTNYNPSLKSRVTISKDSSKSQVSLKLSSVTAADTAVYYCARVNFGNALDYWGQGTLVTVSS[human IgG1 constant region not spelt out] light: DIVMTQSPDSLAVSLGERATINCKSSQSLLNSGNQKNYLTWYQQKPGQPPKLLIYWASTRDSGVPDRFSGSGSGTDFTLTISSLQAEDVAVYYCQNDFIFPLTFGGGTKVEIKRTVAAPSVFIFPPSDEQLKSGTASVVCLLNNFYPREAKVQWKVDNALQSGNSQESVTEQDSKDSTYSLSSTLTLSKADYEKHKVYACEVTHQGLSSPVTKSFNRGEC",–,10
"2C6.9-TL002 (other, TL002 linker-toxin on antibody sulfhydryl groups (thioether bond); overall DAR 6.95) heavy: QVQLQESGPGLVKPSETLSLTCTVSGFSLTRYGVSWIRQPPGKGLEWIGVIWGEGNTNYNPSLKSRVTISKDSSKSQVSLKLSSVTAADTAVYYCARVNFGNALDYWGQGTLVTVSS[human IgG1 constant region not spelt out] light: DIVMTQSPDSLAVSLGERATINCKSSQSLLNSGNQKNYLTWYQQKPGQPPKLLIYWASTRDSGVPDRFSGSGSGTDFTLTISSLQAEDVAVYYCQNDFIFPLTFGGGTKVEIKRTVAAPSVFIFPPSDEQLKSGTASVVCLLNNFYPREAKVQWKVDNALQSGNSQESVTEQDSKDSTYSLSSTLTLSKADYEKHKVYACEVTHQGLSSPVTKSFNRGEC",–,54.9
"2C6.9-TL003 (other, TL003 linker-toxin on antibody sulfhydryl groups (thioether bond); overall DAR 7.03) heavy: QVQLQESGPGLVKPSETLSLTCTVSGFSLTRYGVSWIRQPPGKGLEWIGVIWGEGNTNYNPSLKSRVTISKDSSKSQVSLKLSSVTAADTAVYYCARVNFGNALDYWGQGTLVTVSS[human IgG1 constant region not spelt out] light: DIVMTQSPDSLAVSLGERATINCKSSQSLLNSGNQKNYLTWYQQKPGQPPKLLIYWASTRDSGVPDRFSGSGSGTDFTLTISSLQAEDVAVYYCQNDFIFPLTFGGGTKVEIKRTVAAPSVFIFPPSDEQLKSGTASVVCLLNNFYPREAKVQWKVDNALQSGNSQESVTEQDSKDSTYSLSSTLTLSKADYEKHKVYACEVTHQGLSSPVTKSFNRGEC",–,124
